Experimental data: a compilation of properties of binary mixtures (doi:10.1016/j.jct.2015.07.015)
The densities may have been worked out from excess volumes.

Experiment: xn = mol fraction of the nth substance listed
Conditions: 101 kPa

CC(=O)[O-].CC[n+]1ccn(C)c1 + O
mass density [kg/m3]
Conditions	298.15 K	303.15 K	313.15 K	323.15 K	333.15 K	343.15 K	353.15 K	363.15 K	373.15 K
x2 = 0.072	1098.3	1095.3	1089.2	1083.2	1077.2	1071.2	1065.4	–	–
x2 = 0.102	1098.3	1095.3	1089.2	1083.2	1077.2	1071.3	–	–	–
x2 = 0.132	1098.8	–	–	–	–	–	–	–	–
x2 = 0.188	1099.7	1096.6	–	–	–	1072.6	–	1060.8	–
x2 = 0.266	–	1097.5	1091.4	1085.5	–	1073.5	1067.7	1061.8	1056
x2 = 0.355	1101.8	1098.9	1092.8	1086.8	1080.8	–	–	1062.9	1057.1

C=CC[n+]1ccn(C)c1.[Cl-] + O
mass density [kg/m3]
Conditions	298.15 K	303.15 K	313.15 K	323.15 K	328.15 K	333.15 K	343.15 K	353.15 K	363.15 K	373.15 K
x2 = 0.045	1145.9	1143	–	1131	1128.2	1125.4	1119.9	1114.4	1108.8	1103.6
x2 = 0.091	1145.7	1142.7	1136.7	1131	1128.1	–	1119.8	1114.3	–	1103.5
x2 = 0.126	1145.4	1142.4	–	1130.7	1128.1	1125.2	1119.7	–	–	–
x2 = 0.152	1145.3	1142.3	1136.4	1130.6	1127.9	1125	1119.5	1113.9	1108.4	1103
x2 = 0.193	–	1141.8	1136	1130.2	1127.5	1124.7	1119.1	1113.6	1108	–
x2 = 0.267	–	1140.9	1135.1	1129.5	1126.7	1124	1118.3	–	1107.3	–
x2 = 0.335	1143	–	1134.4	–	1125.8	1123	1117.4	1111.8	1106.3	1100.9
